Results taken from PubChem BioAssay (Tox21).
Where “and” joins values, the source holds several entries; their conditions need not be identical. Equal values may be shown once. Inconclusive means that the source gave no clear call. Such entries were picked first, then a sample of the others. Potencies beside an inconclusive call are fits to weak or partial responses and may not hold up. Calls of active or inactive are those of the source. Unless noted, calls come from the whole dose curve.

Experiments:
[1] = qHTS assay to identify small molecule agonists of the NFkB signaling pathway - cell viability counter screen (AID 1159515); note: nearly all actives have a fitted effect of over 55% in size
Method in brief: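 Counter screen run alongside the NFkB-bla agonist assay: ME-180 reporter cells exposed to compounds for 5 hr, then lysed with CellTiter-Glo in the same wells. Luminescence, read after 30 min, reflects viable cells.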

[2] = qHTS assay to identify small molecule agonists of the endoplasmic reticulum stress response signaling pathway (AID 1159516; active = well fitted activation curve with a large enough effect in the signal ratio in the repeat runs, not every such curve was filed as active; inconclusive = weak or mixed curves, or effect the other way; the % refers to the signal ratio; for activation: % is set by controls: 0 for no effect and ±100 for the full control effect); settings: ESRE-bla HeLa, ER stress beta-lactamase reporter, 5 h; activation: at 61 µM (top of the series) unless noted
Method in brief: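 For this screen, HeLa cells stably carrying beta-lactamase under the ER stress response element received test compounds, positive controls or DMSO for 5 hr at 37 C; B/G FRET substrate was then added and dual-wavelength emission recorded.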

[3] = target: Nuclear receptor ROR-gamma (Homo sapiens) (UniProt P51449); experiment: qHTS assay to identify small molecule antagonists of the retinoid-related orphan receptor gamma (ROR-gamma) signaling pathway (AID 1159521; active = well fitted curve in the direction sought with a large enough effect in the repeat runs; inconclusive = weak or mixed curves; inactive = no such curve, though single readings can be large; an effect the other way counts as inactive or inconclusive; note: nearly all actives have a fitted effect of over 50% in size)
Method in brief: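 Antagonist read-out: drop in luminescence (ONE-Glo) from an RORE-LUC reporter in CHO cells with doxycycline-inducible ROR-gamma; 2 hr compound pretreatment, 1 uM doxycycline, 16 hr incubation at 37 C.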

[4] = qHTS assay to identify small molecule agonists of the AP-1 signaling pathway (AID 1159526); settings: ME-180 (cervical carcinoma) AP-1-bla reporter, beta-lactamase FRET ratio, 5 h; activation: at 76.8 µM (top of the series) unless noted; for activation: % is set by controls: 0 for no effect and ±100 for the full control effect
[5] = target: Retinoic acid receptor RXR-alpha (Homo sapiens) (UniProt P19793); experiment: qHTS assay to identify small molecule agonists of the RXR signaling pathway (AID 1159527); settings: HEK293T RXRa-UAS-bla, beta-lactamase ratio, 16 h; activation: at 76.8 µM (top of the series) unless noted; note: nearly all actives have a fitted effect of over 35% in size; for activation: % is set by controls: 0 for no effect and ±100 for the full control effect
UniProt P19793, sequence (P19793 whole entry, looked up): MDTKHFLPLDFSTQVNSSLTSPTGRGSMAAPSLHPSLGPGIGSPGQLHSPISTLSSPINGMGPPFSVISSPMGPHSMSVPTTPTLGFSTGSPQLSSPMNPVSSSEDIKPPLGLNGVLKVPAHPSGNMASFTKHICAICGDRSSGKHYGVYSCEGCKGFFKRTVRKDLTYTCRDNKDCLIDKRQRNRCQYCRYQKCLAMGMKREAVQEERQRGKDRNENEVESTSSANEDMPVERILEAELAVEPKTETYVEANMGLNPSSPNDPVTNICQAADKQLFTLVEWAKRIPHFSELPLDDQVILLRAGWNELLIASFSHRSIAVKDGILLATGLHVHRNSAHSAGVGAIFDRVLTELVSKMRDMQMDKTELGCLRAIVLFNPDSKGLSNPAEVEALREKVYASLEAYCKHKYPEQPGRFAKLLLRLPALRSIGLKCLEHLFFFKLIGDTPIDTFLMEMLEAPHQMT
Method in brief: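 Agonist-mode beta-lactamase reporter assay: HEK 293T RXR-alpha-UAS-bla cells treated 16 hr at 37 C with compounds, 9-cis retinoic acid as positive control. LiveBLAzer FRET substrate, 405 nm excitation, 460/530 nm emission.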

[6] = qHTS assay to identify small molecule antagonists of the retinoid-related orphan receptor gamma (ROR-gamma) signaling pathway - cell viability counter screen (AID 1159520; active = well fitted curve in the direction sought with a large enough effect in the repeat runs; inconclusive = weak or mixed curves; inactive = no such curve, though single readings can be large; an effect the other way counts as inactive or inconclusive; note: nearly all actives have a fitted effect of over 50% in size)
Method in brief: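 Tet-on ROR gamma CHO cells were given compounds for 2 hr, then doxycycline hyclate at 1 uM final, and incubated 16 hr at 37 C. Viability was measured as ATP content by CellTiter-Glo luminescence.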

[7] = qHTS assay to identify small molecule agonists of the RXR signaling pathway - cell viability counter screen (AID 1159529; active = well fitted curve in the direction sought with a large enough effect in the repeat runs; inconclusive = weak or mixed curves; inactive = no such curve, though single readings can be large; an effect the other way counts as inactive or inconclusive; note: nearly all actives have a fitted effect of over 50% in size)
Method in brief: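 CellTiter-Glo luminescence gave viability in the wells also read for beta-lactamase. Cells (RXR-alpha-UAS-bla HEK 293T, 2% charcoal-stripped FBS medium) had 5 hr plating, then 16 hr compound exposure at 37 C; tetraoctyl ammonium bromide served as positive control.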

[8] = qHTS assay to identify small molecule antagonists of the vitamin D receptor (VDR) signaling pathway - cell viability counter screen (AID 743225; active = well fitted curve in the direction sought with a large enough effect in the repeat runs; inconclusive = weak or mixed curves; inactive = no such curve, though single readings can be large; an effect the other way counts as inactive or inconclusive; note: nearly all actives have a fitted effect of over 50% in size; for viability change, negative = cytotoxic: % is set by controls: 0 for no effect and ±100 for the full control effect); settings: VDR-bla HEK293T viability, CellTiter-Glo luminescence, 16 h; viability change, negative = cytotoxic: at 61 µM (top of the series) unless noted
Method in brief: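 Cytotoxicity counter screen read by CellTiter-Glo luminescence (30 min, room temperature) in the same wells as the VDR-bla antagonist readout. HEK 293T VDR-UAS-bla cells had 16 h at 37C with compound and 3 nM (final) 1-alpha,25-dihydroxyvitamin D3, then 2 h with FRET substrate.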

[9] = qHTS assay to identify small molecule agonists of the endoplasmic reticulum stress response signaling pathway - cell viability counter screen (AID 1159517); note: nearly all actives have a fitted effect of over 50% in size
Method in brief: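 In parallel with the ESRE reporter read, cytotoxicity was scored by CellTiter-Glo luminescence (30 min, room temperature) on HeLa ESRE-bla cells dosed for 5 hr.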

[10] = qHTS assay to identify small molecule agonists of the AP-1 signaling pathway - cell viability counter screen (AID 1159525); note: nearly all actives have a fitted effect of over 55% in size
Method in brief: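 Same-well cytotoxicity counter screen of the Tox21 10K library in ME-180 cells. The readout is ATP-dependent luminescence after 5 h compound treatment. Data are normalised to DMSO and tetra n-octyl ammonium bromide controls.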
Potency is the fitted concentration of half-maximal effect; tags give direction and shape of the fitted curve or compound fluorescence and quenching.

With `CCOC(=O)[C@@](C)(N)Cc1ccc(O)c(O)c1` the Potency [1] was inconclusive: 0.0952 µM [cytotoxic, single point], the Potency [2] was inconclusive: 10.7 µM [fluorescent] and the Potency [3] was inconclusive: 29.8 µM [inhibitor, single point]. The Potency [4] was “inactive” and the Potency [5] was inconclusive: 21.3 µM [inhibitor].
In the case of `COC(=O)[C@H]1[C@H]2C[C@@H]3c4[nH]c5cc(OC)ccc5c4CCN3C[C@H]2C[C@@H](OC(=O)/C=C/c2ccc(O)c(OC)c2)[C@@H]1OC`, the Potency [1] is reported as inconclusive: 15.1 µM [cytotoxic, partial curve, poor fit], the Potency [2] is reported as “inactive” and the Potency [6] is reported as inconclusive: 33.5 µM [cytotoxic, single point]. The Potency [3] was active: 13.3 µM and the Potency [5] was inconclusive: 26.8 µM [rising, partial curve, poor fit].
In the case of `CCOC(=O)c1ccccc1C`, the Potency [1] is reported as “inactive”, the Potency [2] is reported as “inactive” and the Potency [3] is reported as inconclusive: 30.6 µM [inhibitor, partial curve, poor fit]. For the same compound, the Potency [5] was inconclusive: 49 µM [activator] and the Potency [7] was inconclusive: 38.9 µM [cytotoxic, partial curve].
In the case of `CCCCC=O`, the Potency [8] is reported as “inactive”, the Potency [1] is reported as “inactive” and the Potency [2] is reported as “inactive”. The Potency [3] was “inactive” and the Potency [5] was active: 17.4 µM.
For `Nc1ccc([N+](=O)[O-])cc1O`, the Potency [8] was inconclusive: 11 µM [cytotoxic, full curve, poor fit], the Potency [1] was inconclusive: 61.6 µM [cytotoxic] and the Potency [2] was inconclusive: 6.92 µM [rising, partial curve, poor fit]. For the same compound, the Potency [9] was inconclusive: 0.49 µM [cytotoxic, single point] and the Potency [5] was “inactive”.
For `C[C@@]12C(=O)OC(=O)[C@]1(C)C1CCC2O1`, the Potency [8] was inconclusive: 7.56 µM [cytotoxic, full curve], the Potency [1] was inconclusive: 9.52 µM [rising, partial curve] and the Potency [2] was inconclusive: 1.34 µM [rising, full curve]. For the same compound, the Potency [6] was active: 4.22 µM, the Potency [3] was active: 4.22 µM and the activation [4] was inconclusive: -13.5% [at 35.3 µM]. The Potency [5] was inconclusive: 9.52 µM [rising, partial curve].
For `COc1cccc(O)c1O`, the Potency [1] was inconclusive: 57.1 µM [rising, partial curve, poor fit], the Potency [2] was inconclusive: 57.1 µM [rising, partial curve, poor fit] and the Potency [6] was inconclusive: 63.5 µM [cytotoxic, partial curve, poor fit]. The Potency [4] was inconclusive: 45.4 µM [falling, partial curve].
With `OCCOCC#CCOCCO` the Potency [1] was inconclusive: 54.9 µM [rising, partial curve, poor fit], the Potency [2] was active: 49 µM and the Potency [3] was “inactive”.
In the case of `O=C(Nc1cccc2c(=O)cc(-c3nn[nH]n3)oc12)c1ccc(OCCCCc2ccccc2)cc1`, the Potency [8] is reported as inconclusive: 26.8 µM [cytotoxic, single point], the Potency [1] is reported as “inactive” and the Potency [2] is reported as inconclusive: 30.1 µM. For the same compound, the Potency [3] was inconclusive: 11.9 µM [inhibitor, single point], the Potency [10] was inconclusive: 16.9 µM [cytotoxic, partial curve] and the activation [4] was inconclusive: -14.6% [at 35.3 µM].
In the case of `Cc1occc1SSc1ccoc1C`, the Potency [1] is reported as inconclusive: 61.6 µM [cytotoxic], the Potency [2] is reported as inconclusive: 61.6 µM [rising, single point] and the Potency [6] is reported as inconclusive: 68.6 µM [cytotoxic, partial curve, poor fit]. The Potency [4] was inconclusive: 34.7 µM and the Potency [5] was inconclusive: 49 µM [rising, partial curve, poor fit].
In the case of `CCC(C)(C)C(=O)O[C@H]1C[C@@H](C)C=C2C=C[C@H](C)[C@H](CC[C@@H]3C[C@@H](O)CC(=O)O3)[C@H]21`, the Potency [8] is reported as inconclusive: 26.8 µM [cytotoxic, single point], the Potency [1] is reported as inconclusive: 23.9 µM [cytotoxic, single point] and the Potency [2] is reported as “inactive”. For the same compound, the Potency [6] was inconclusive: 15.4 µM [cytotoxic], the Potency [10] was inconclusive: 26.8 µM [cytotoxic, single point] and the Potency [4] was inconclusive: 23.9 µM [cytotoxic, partial curve]. The Potency [5] was inconclusive: 49 µM [fluorescent, partial curve] and inconclusive: 10.7 µM [inhibitor, full curve] and the Potency [7] was inconclusive: 17.4 µM [cytotoxic, partial curve] and active: 12 µM.
In the case of `COc1cc(C(=O)NS(=O)(=O)c2ccccc2C)ccc1Cc1cn(C)c2ccc(NC(=O)OC3CCCC3)cc12`, the Potency [1] is reported as inconclusive: 1.07 µM [cytotoxic, full curve, poor fit], the Potency [2] is reported as inconclusive: 10.7 µM [rising, single point] and the Potency [10] is reported as inconclusive: 5.35 µM [cytotoxic, partial curve, poor fit]. The activation [4] was inconclusive: -15.4% [at 35.3 µM] and the Potency [5] was inconclusive: 26.8 µM [rising, partial curve, poor fit].
With `CC(C)(C(=O)c1cccnc1)c1cccnc1` the Potency [8] was “inactive”, the Potency [1] was “inactive” and the Potency [2] was “inactive”. For the same compound, the Potency [9] was inconclusive: 26.8 µM [rising, single point].
For `CC1=CCC(C(C)(C)O)CC1` (stereo unspecified), the Potency [8] was “inactive”, the Potency [1] was inconclusive: 55.3 µM [rising, single point] and the Potency [2] was “inactive”. For the same compound, the Potency [9] was inconclusive: 8.76 µM [rising, partial curve, poor fit].
In the case of `CC(=O)Oc1ccc(C(=C2CCCCC2)c2ccc(OC(C)=O)cc2)cc1`, the Potency [1] is reported as “inactive”, the Potency [2] is reported as “inactive” and the Potency [3] is reported as inconclusive: 8.41 µM [inhibitor, full curve, poor fit]. The activation [5] was inconclusive: -31.3% [at 35.3 µM].
With `CCC(OCCCOC)OC(C)=O` (stereo unspecified) the Potency [1] was inconclusive: 63.1 µM [rising, partial curve, poor fit], the Potency [2] was “inactive” and the Potency [10] was “inactive”.
In the case of `CCN(Cc1cccc(S(=O)(=O)O)c1)c1ccc(C(=C2C=CC(=[N+](CC)Cc3cccc(S(=O)(=O)O)c3)C=C2)c2ccccc2S(=O)(=O)[O-])cc1`, the Potency [6] is reported as active: 9.72 µM, the Potency [3] is reported as inconclusive: 4.87 µM [inhibitor, full curve] and the Potency [10] is reported as inconclusive: 27.6 µM [cytotoxic, partial curve].
With `CC1OCCC1=O` (stereo unspecified) the Potency [6] was “inactive”.
In the case of `Nc1ncnc2c1ncn2[C@@H]1O[C@H](COP(=O)(O)O)[C@@H](O)[C@H]1O`, the Potency [8] is reported as active: 10.7 µM, the Potency [1] is reported as inconclusive: 19 µM [rising, partial curve, poor fit] and the Potency [9] is reported as inconclusive: 7.56 µM [rising, partial curve, poor fit]. The Potency [4] was inconclusive: 23.9 µM [activator, partial curve].
